Measurements reported in patent publication US5589568A (priority 1994, dated 1996).
Where two headings read alike, the source gives them in different places. At least one peptide structure holds a part that was inferred or is arguable (an end, a ring closure or a residue). Some entries repeat one wording, which the source may state once for all of them. Where no end group is shown, it is not given here.

What was measured:
Gs = Gs (Homo sapiens, UniProt P63092); assay: steady state GTPase activity of Gs; assay type: biochemical
Summary of the method: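 Steady-state GTP hydrolysis by Gs was run in buffer without detergent, with 1.1 mM MgSO4 and the specified nucleotide, and free Mg^2+ set with EDTA buffers where needed. Activity is expressed as molar turnover number. Apparent affinity and efficacy were estimated from the EC50 and the maximal turnover number of GTPase activity.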

Gi = assay: steady state GTPase activity of Gi in phospholipid vesicles; assay type: biochemical, rabbit
Go = biological target: T1, Go (Bos taurus, UniProt P08239); assay: steady state GTPase activity of Go in phospholipid vesicles; assay type: biochemical, bovine; conditions: for Goo ef. (apparent efficacy, maximum turnover number of GTPase activity): Table IV; for Go ef. (apparent efficacy, maximum turnover number of GTPase activity): Table VI, receptor-based peptides
T1 construct: proteins were extracted from bovine cerebral cortical membranes; from tissue; host or cells: bovine brain (cerebral cortical membranes)

[1] = Table IV, read-out: G1 af. (apparent affinity, estimated by EC50 of GTPase activity)
[2] = Table VI, receptor-based peptides
[3] = Table VI, receptor-based peptides, read-out: Gi af. (apparent affinity, estimated by EC50 of GTPase activity)

T1 sequence (P08239 2-354 limits assumed): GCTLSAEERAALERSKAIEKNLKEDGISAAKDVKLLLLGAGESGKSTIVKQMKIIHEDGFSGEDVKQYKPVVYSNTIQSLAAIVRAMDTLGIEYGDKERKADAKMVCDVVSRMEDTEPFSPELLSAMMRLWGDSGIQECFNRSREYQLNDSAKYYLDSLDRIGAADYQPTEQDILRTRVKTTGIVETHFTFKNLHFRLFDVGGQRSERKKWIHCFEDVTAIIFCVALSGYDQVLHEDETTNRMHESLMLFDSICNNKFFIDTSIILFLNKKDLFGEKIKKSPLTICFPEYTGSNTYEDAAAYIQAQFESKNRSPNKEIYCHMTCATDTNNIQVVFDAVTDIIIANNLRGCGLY
T1 sequence (P62871 2-340 partner limits assumed): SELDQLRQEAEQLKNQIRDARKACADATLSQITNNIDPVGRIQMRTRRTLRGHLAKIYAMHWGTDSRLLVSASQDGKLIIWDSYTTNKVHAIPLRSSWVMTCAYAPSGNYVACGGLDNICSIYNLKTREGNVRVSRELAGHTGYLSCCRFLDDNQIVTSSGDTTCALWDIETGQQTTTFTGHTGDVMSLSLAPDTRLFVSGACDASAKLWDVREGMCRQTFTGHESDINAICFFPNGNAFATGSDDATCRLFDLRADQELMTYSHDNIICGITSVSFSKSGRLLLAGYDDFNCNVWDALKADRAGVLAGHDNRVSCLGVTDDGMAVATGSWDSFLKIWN
T1 sequence (P63212 2-68 partner limits assumed): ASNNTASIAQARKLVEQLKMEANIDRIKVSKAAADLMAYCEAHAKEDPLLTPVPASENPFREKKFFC
Chain of Gs (P63092 whole entry): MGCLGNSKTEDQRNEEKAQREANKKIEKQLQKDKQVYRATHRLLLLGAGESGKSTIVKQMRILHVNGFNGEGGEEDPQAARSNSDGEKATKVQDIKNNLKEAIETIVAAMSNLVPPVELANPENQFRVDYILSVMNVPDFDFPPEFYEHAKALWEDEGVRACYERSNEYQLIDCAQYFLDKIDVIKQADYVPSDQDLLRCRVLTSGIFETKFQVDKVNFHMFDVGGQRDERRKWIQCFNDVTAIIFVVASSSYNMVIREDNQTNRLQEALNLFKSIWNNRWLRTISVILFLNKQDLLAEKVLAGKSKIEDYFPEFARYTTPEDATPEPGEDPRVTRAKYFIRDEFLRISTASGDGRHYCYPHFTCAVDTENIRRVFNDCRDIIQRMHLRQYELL

## CC[C@H](C)[C@H](N)C(=O)N[C@@H](CC(N)=O)C(=O)N[C@@H](CC(C)C)C(=O)N[C@@H](CCCCN)C(=O)N[C@@H](C)C(=O)N[C@@H](CC(C)C)C(=O)N[C@@H](C)C(=O)N[C@@H](C)C(=O)N[C@@H](CC(C)C)C(=O)N[C@@H](C)C(=O)N[C@@H](CCCCN)C(=O)N[C@@H](CCCCN)C(=O)N[C@@H](C)C(=O)N[C@@H](CC(C)C)C(N)=O [MAS05, INLKALAALAKKAL]
Gs; Table IV
  Gs ef. (apparent efficacy, maximum turnover number of GTPase activity): F (Fair (F): 2-5 fold)
Gi; Table IV
  G1 ef. (apparent efficacy, maximum turnover number of GTPase activity): F (Fair (F): 2-5 fold)
Gi; [1]
  EC50: 10 to 30 µM
Gi; initial screen of modified mastoparan congeners, Gi versus Go
  change of the selectivity of mastoparan between Gi and Go: less than 5 fold
Go
  Goo ef. (apparent efficacy, maximum turnover number of GTPase activity): G (Good (G): 5-10 fold)

## CC[C@H](C)[C@H](N)C(=O)N[C@@H](CC(N)=O)C(=O)N[C@@H](CC(C)C)C(=O)N[C@@H](CCCCN)C(=O)N[C@@H](C)C(=O)N[C@@H](CC(C)C)C(=O)N[C@@H](C)C(=O)N[C@@H](C)C(=O)N[C@@H](CC(C)C)C(=O)N[C@@H](C)C(=O)N[C@@H](CCCCN)C(=O)N[C@@H](CCCCN)C(=O)N[C@@H](CCCCN)C(=O)N[C@@H](CC(C)C)C(N)=O [MAS06]
Gs; Table IV
  Gs ef. (apparent efficacy, maximum turnover number of GTPase activity): F (Fair (F): 2-5 fold)
Gi; Table IV
  G1 ef. (apparent efficacy, maximum turnover number of GTPase activity): F (Fair (F): 2-5 fold)
Gi; [1]
  EC50: 30 to 100 µM
Go
  Goo ef. (apparent efficacy, maximum turnover number of GTPase activity): F (Fair (F): 2-5 fold)

## CISRASKSRIKKDKKEPVAIL-NH2 [ER44]
Gs; [2]
  Gs ef. (apparent efficacy, maximum turnover number of GTPase activity): F (Fair (F): 2-5 fold)
Gi; [2]
  Gi ef. (apparent efficacy, maximum turnover number of GTPase activity): P (Poor (P): less than 2 fold)
Gi; [3]
  EC50: > 100 µM
Go
  Go ef. (apparent efficacy, maximum turnover number of GTPase activity): F (Fair (F): 2-5 fold)

## CISRASKSRIKKDKKIL-NH2 [ER45]
Gs; [2]
  Gs ef. (apparent efficacy, maximum turnover number of GTPase activity): F (Fair (F): 2-5 fold)
Gi; [2]
  Gi ef. (apparent efficacy, maximum turnover number of GTPase activity): P (Poor (P): less than 2 fold)
Gi; [3]
  EC50: > 100 µM
Go
  Go ef. (apparent efficacy, maximum turnover number of GTPase activity): F (Fair (F): 2-5 fold)

## CIYRETENRARELAALQGSET-NH2 [ER32]
Gs; [2]
  Gs ef. (apparent efficacy, maximum turnover number of GTPase activity): P (Poor (P): less than 2 fold)
Gi; [2]
  Gi ef. (apparent efficacy, maximum turnover number of GTPase activity): P (Poor (P): less than 2 fold)
Gi; [3]
  EC50: > 100 µM
Go
  Go ef. (apparent efficacy, maximum turnover number of GTPase activity): P (Poor (P): less than 2 fold)

## CIYRETENRARELAALQGSETIL-NH2 [ER33]
Gs; [2]
  Gs ef. (apparent efficacy, maximum turnover number of GTPase activity): P (Poor (P): less than 2 fold)
Gi; [2]
  Gi ef. (apparent efficacy, maximum turnover number of GTPase activity): P (Poor (P): less than 2 fold)
Gi; [3]
  EC50: > 100 µM
Go
  Go ef. (apparent efficacy, maximum turnover number of GTPase activity): P (Poor (P): less than 2 fold)

## CLLKALAALAKALL-NH2 [ER30]
Gs
  effect on Gs (in words): significant effects on Gs
Gs; Table IV
  Gs ef. (apparent efficacy, maximum turnover number of GTPase activity): E (Excellent (E): 30-10 fold)
Gi; Table IV
  G1 ef. (apparent efficacy, maximum turnover number of GTPase activity): E (Excellent (E): 30-10 fold)
Gi; [1]
  EC50: 3 to 10 µM
Go
  Goo ef. (apparent efficacy, maximum turnover number of GTPase activity): G (Good (G): 5-10 fold)

## CNYKALAALAKALL-NH2 [ER16]
Gs; Table IV
  Gs ef. (apparent efficacy, maximum turnover number of GTPase activity): F (Fair (F): 2-5 fold)
Gi; Table IV
  G1 ef. (apparent efficacy, maximum turnover number of GTPase activity): S (Super (S): more than 30-fold)
Gi; [1]
  EC50: 3 to 10 µM
Go
  Goo ef. (apparent efficacy, maximum turnover number of GTPase activity): E (Excellent (E): 30-10 fold)

## CPLSYRAKRTPRRAALM-NH2 [ER38]
Gs; [2]
  Gs ef. (apparent efficacy, maximum turnover number of GTPase activity): F (Fair (F): 2-5 fold)
Gi; [2]
  Gi ef. (apparent efficacy, maximum turnover number of GTPase activity): F (Fair (F): 2-5 fold)
Gi; [3]
  EC50: 10 to 30 µM
Go
  Go ef. (apparent efficacy, maximum turnover number of GTPase activity): F (Fair (F): 2-5 fold)

## CVFQVAKRQLQKIDKVL-NH2 [ER36]
Gs
  effect on Gs (in words): significant Gs -specific action
Gs; [2]
  Gs ef. (apparent efficacy, maximum turnover number of GTPase activity): E (Excellent (E): 30-10 fold)
Gi; [2]
  Gi ef. (apparent efficacy, maximum turnover number of GTPase activity): F (Fair (F): 2-5 fold)
Gi; [3]
  EC50: 10 to 30 µM
Go
  Go ef. (apparent efficacy, maximum turnover number of GTPase activity): F (Fair (F): 2-5 fold)

## CVYIVAKRTTKNLEAGVMKEIL-NH2 [ER34]
Gs; [2]
  Gs ef. (apparent efficacy, maximum turnover number of GTPase activity): F (Fair (F): 2-5 fold)
Gi; [2]
  Gi ef. (apparent efficacy, maximum turnover number of GTPase activity): F (Fair (F): 2-5 fold)
Gi; [3]
  EC50: 10 to 30 µM
Go
  Go ef. (apparent efficacy, maximum turnover number of GTPase activity): F (Fair (F): 2-5 fold)

## CVYIVAKRTTKNLEIL-NH2 [ER35]
Gs; [2]
  Gs ef. (apparent efficacy, maximum turnover number of GTPase activity): P (Poor (P): less than 2 fold)
Gi; [2]
  Gi ef. (apparent efficacy, maximum turnover number of GTPase activity): F (Fair (F): 2-5 fold)
Gi; [3]
  EC50: 30 to 100 µM
Go
  Go ef. (apparent efficacy, maximum turnover number of GTPase activity): F (Fair (F): 2-5 fold)

## CVYREAKEQIRKIDR-NH2 [ER43]
Gs; [2]
  Gs ef. (apparent efficacy, maximum turnover number of GTPase activity): P (Poor (P): less than 2 fold)
Gi; [2]
  Gi ef. (apparent efficacy, maximum turnover number of GTPase activity): P (Poor (P): less than 2 fold)
Gi; [3]
  EC50: > 100 µM
Go
  Go ef. (apparent efficacy, maximum turnover number of GTPase activity): P (Poor (P): less than 2 fold)

## CVYREAKEQIRKIDRVL-NH2 [ER18]
Gs; [2]
  Gs ef. (apparent efficacy, maximum turnover number of GTPase activity): F (Fair (F): 2-5 fold)
Gi; [2]
  Gi ef. (apparent efficacy, maximum turnover number of GTPase activity): F (Fair (F): 2-5 fold)
Gi; [3]
  EC50: 10 to 30 µM
Go
  Go ef. (apparent efficacy, maximum turnover number of GTPase activity): F (Fair (F): 2-5 fold)

## CVYREAKEQIRKIL-NH2 [ER19]
Gs; [2]
  Gs ef. (apparent efficacy, maximum turnover number of GTPase activity): P (Poor (P): less than 2 fold)
Gi; [2]
  Gi ef. (apparent efficacy, maximum turnover number of GTPase activity): F (Fair (F): 2-5 fold)
Gi; [3]
  EC50: 10 to 30 µM
Go
  Go ef. (apparent efficacy, maximum turnover number of GTPase activity): F (Fair (F): 2-5 fold)

## CVYVVAKRESRGLKIL-NH2 [ER47]
Gs; [2]
  Gs ef. (apparent efficacy, maximum turnover number of GTPase activity): P (Poor (P): less than 2 fold)
Gi; [2]
  Gi ef. (apparent efficacy, maximum turnover number of GTPase activity): F (Fair (F): 2-5 fold)
Gi; [3]
  EC50: > 100 µM
Go
  Go ef. (apparent efficacy, maximum turnover number of GTPase activity): F (Fair (F): 2-5 fold)

## CVYVVAKRESRGLKSGLKTDIL-NH2 [ER46]
Gs; [2]
  Gs ef. (apparent efficacy, maximum turnover number of GTPase activity): P (Poor (P): less than 2 fold)
Gi; [2]
  Gi ef. (apparent efficacy, maximum turnover number of GTPase activity): F (Fair (F): 2-5 fold)
Gi; [3]
  EC50: 3 to 10 µM
Go
  Go ef. (apparent efficacy, maximum turnover number of GTPase activity): F (Fair (F): 2-5 fold)

## IKWKAILDAVKKVL-NH2 [MP-A, reference compound]
Gs; Table IV
  Gs ef. (apparent efficacy, maximum turnover number of GTPase activity): F (Fair (F): 2-5 fold)
Gi; Table IV
  G1 ef. (apparent efficacy, maximum turnover number of GTPase activity): G (Good (G): 5-10 fold)
Gi; [1]
  EC50: 3 to 10 µM
Go
  Goo ef. (apparent efficacy, maximum turnover number of GTPase activity): E (Excellent (E): 30-10 fold)

## ILLKALAALAKALL-NH2 [ER21]
Gs
  activation of Gs: ≥ 10 fold
  effect on Gs (in words): significant effects on Gs
Gs; Table IV
  Gs ef. (apparent efficacy, maximum turnover number of GTPase activity): E (Excellent (E): 30-10 fold)
Gi; Table IV
  G1 ef. (apparent efficacy, maximum turnover number of GTPase activity): S (Super (S): more than 30-fold)
Gi; [1]
  EC50: 3 to 10 µM
Go
  Goo ef. (apparent efficacy, maximum turnover number of GTPase activity): E (Excellent (E): 30-10 fold)

## INAKALAALAKKLL-NH2 [MAS21]
Gs; Table IV
  Gs ef. (apparent efficacy, maximum turnover number of GTPase activity): F (Fair (F): 2-5 fold)
Gi; Table IV
  G1 ef. (apparent efficacy, maximum turnover number of GTPase activity): E (Excellent (E): 30-10 fold)
Gi; [1]
  EC50: 30 to 100 µM
Go
  Goo ef. (apparent efficacy, maximum turnover number of GTPase activity): E (Excellent (E): 30-10 fold)

## INFKALAALAKKLL-NH2 [MAS22]
Gs; Table IV
  Gs ef. (apparent efficacy, maximum turnover number of GTPase activity): F (Fair (F): 2-5 fold)
Gi; Table IV
  G1 ef. (apparent efficacy, maximum turnover number of GTPase activity): E (Excellent (E): 30-10 fold)
Gi; [1]
  EC50: 10 to 30 µM
Go
  Goo ef. (apparent efficacy, maximum turnover number of GTPase activity): E (Excellent (E): 30-10 fold)

## INLAALAALAKALL-NH2 [ER4]
Gs; Table IV
  Gs ef. (apparent efficacy, maximum turnover number of GTPase activity): F (Fair (F): 2-5 fold)
Gi; Table IV
  G1 ef. (apparent efficacy, maximum turnover number of GTPase activity): S (Super (S): more than 30-fold)
Gi; [1]
  EC50: 10 to 30 µM
Go
  Goo ef. (apparent efficacy, maximum turnover number of GTPase activity): E (Excellent (E): 30-10 fold)
